Measurements published in PubChem BioAssay AID1030 (National Center for Advancing Translational Sciences (NCATS), 2008).
Hit rate of the full screen: of about 220,000 compounds, about 16,000 (7.3%) were called active. This list was built around the results that the source calls inconclusive (neither active nor inactive); the mix of calls is not that of the screen. Calls follow the shape of the dose curve; as a rule, active = well fitted inhibition curve with a large enough effect (not every such curve was filed as active); inconclusive = small, poorly fitted or top-dose-only effect, or another doubt; inactive = no such curve, though single readings can be large or run the other way. Potencies of inconclusive entries are left out as doubtful fits.
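For activity, negative = inhibition in this document: plate controls were no enzyme wells and a reference inhibitor.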
Potency is read from the fitted curve at half-maximal effect; tags tell the direction and shape of the fitted curve.

Each compound was assayed against Aldehyde dehydrogenase 1A1 (Homo sapiens) (UniProt P00352) (assay: qHTS Assay for Inhibitors of Aldehyde Dehydrogenase 1 (ALDH1A1)). Conditions: Purified ALDH1A1, NADH fluorescence, propionaldehyde substrate; series mostly up to 75.3 µM; activity, negative = inhibition: at the top concentration.
Sequence of UniProt P00352 (P00352 whole entry, looked up): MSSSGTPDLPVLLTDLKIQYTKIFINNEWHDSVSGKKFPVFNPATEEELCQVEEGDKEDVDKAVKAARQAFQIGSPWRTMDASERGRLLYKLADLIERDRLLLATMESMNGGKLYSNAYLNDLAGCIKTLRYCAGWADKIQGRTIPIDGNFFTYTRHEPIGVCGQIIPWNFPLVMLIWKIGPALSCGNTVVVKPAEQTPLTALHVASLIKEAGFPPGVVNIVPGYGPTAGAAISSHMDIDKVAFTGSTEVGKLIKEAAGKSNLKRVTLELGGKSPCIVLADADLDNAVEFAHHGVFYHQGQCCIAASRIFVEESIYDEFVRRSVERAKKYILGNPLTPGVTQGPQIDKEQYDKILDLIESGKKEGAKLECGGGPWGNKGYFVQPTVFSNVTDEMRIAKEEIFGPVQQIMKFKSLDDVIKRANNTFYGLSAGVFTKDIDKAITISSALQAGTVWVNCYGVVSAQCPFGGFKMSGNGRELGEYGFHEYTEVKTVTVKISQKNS
For Cc1ccc(C(=O)O/N=C2\CCS(=O)(=O)c3sccc32)cc1, the Potency was inconclusive [inhibitor, single point].
For COc1ccccc1N1CCN(c2nc(C)nc3c2oc2ccccc23)CC1, the Potency was inconclusive [inhibitor, partial curve].
CCC1=C/C(=C\c2ccc3c(c2)OCO3)C(=O)S1 was tested, and the Potency was active: 28.2 µM.
For CC(/C=C/c1ccccc1)=N\NC(N)=S, the Potency was inconclusive [inhibitor, partial curve].
With COc1ccc(C(=O)NCCn2ccc3ccccc32)cc1 the Potency was inconclusive [inhibitor, single point].
O=C(O)c1ccc(NC(CSCc2ccccc2F)C(=O)O)c([N+](=O)[O-])c1 (stereo not drawn) was tested, and the Potency was active: 7.94 µM.
O=C(Nc1ccc2c(c1)OCO2)N1CCN(Cc2ccco2)CC1 was tested, and the Potency was inconclusive [inhibitor, single point].
CCOc1cc(/C=C2/NC(=O)N(Cc3ccccc3F)C2=O)ccc1O was tested, and the Potency was active: 8.91 µM.
In the case of OCCCC1CCCN(Cc2cn[nH]c2-c2ccc(F)cc2F)C1 (stereo not drawn), the “activity, negative = inhibition” value is reported as inactive: 0.0308%.
In the case of COc1ccccc1/C=N/NC(=O)c1ccc(NC(=O)c2cccc([N+](=O)[O-])c2)cc1, the Potency is reported as active: 7.94 µM.
For CCC1=C2CC[C@H]3C(=O)NC(=O)[C@H]3[C@H]2[C@@]2(C)C(=NCC(=O)OC)OC(=O)N2C1=O, the “activity, negative = inhibition” value was inactive: -2.89%.
CCOC(=O)c1c(NC(=O)CSc2nnc(CNc3ccc(C)cc3C)o2)sc(C)c1C was tested, and the Potency was inconclusive [inhibitor, single point].
In the case of Nc1ccc(Oc2ccc3c(c2)OCO3)cc1, the Potency is reported as inconclusive [inhibitor, single point].
In the case of CCN(CC)C(=O)CSc1nc2ccccc2c(=O)n1CCC(=O)NCc1ccc(F)cc1, the Potency is reported as active: 1 µM.
In the case of COC(=O)c1ccc(N2C(=O)CC(NCc3ccccc3)C2=O)cc1 (stereo not drawn), the Potency is reported as inconclusive [inhibitor, single point].
With Cc1cccc(-c2nnc(SCc3ccccc3)o2)c1 the “activity, negative = inhibition” value was inactive: 2.58%.
For Cc1c(C(=O)O)sc2nc3n(c(=O)c12)CCC3, the Potency was inconclusive [inhibitor, single point].
In the case of Cc1cc(N2C(=O)CC(N3CCN(C(c4ccccc4)c4ccccc4)CC3)C2=O)no1 (stereo not drawn), the Potency is reported as inconclusive [inhibitor, single point].
In the case of O=C(CSc1nc2ncccc2[nH]1)c1ccc(F)cc1, the Potency is reported as inconclusive [inhibitor, single point].
With Nc1cc(C2CCCC2)nn1-c1ccccc1 the “activity, negative = inhibition” value was inactive: -2.78%.
With Cc1ccc(Nc2cc(C)nn2-c2nc(C)cc(=O)[nH]2)cc1 the Potency was inconclusive [inhibitor, single point].
For O=C(NCCN1CCN(c2ccccc2)CC1)c1ccc2c(c1)[nH]c(=S)n1c3ccccc3nc21, the Potency was inconclusive [inhibitor, single point].
For Cc1nonc1OC(C)CNCCNc1ccc([N+](=O)[O-])cc1 (stereo not drawn), the Potency was inconclusive [inhibitor, single point].
Cc1ccc(OCCn2cc(/C=N/NC(=O)c3ccncc3)c3ccccc32)cc1 was tested, and the “activity, negative = inhibition” value was inactive: -9.4%.
Cc1ccc(C2=CSC3=NCCN23)c(C)c1 was tested, and the Potency was inconclusive [inhibitor, single point].
For COc1cccc(-n2ccnc2SCC(=O)N2CCCc3ccccc32)c1, the Potency was inconclusive [inhibitor, single point].
With CCNC(=S)N1CCN(S(=O)(=O)c2cccc(C(F)(F)F)c2)CC1 the “activity, negative = inhibition” value was inactive: 3.62%.
With Cc1cccc(NC(=S)NC(NC(=O)c2ccco2)C(Cl)(Cl)Cl)c1 (stereo not drawn) the Potency was inconclusive [inhibitor, single point].
For O=C(CCl)NC1CCCc2ccccc21 (stereo not drawn), the Potency was active: 3.16 µM.
With Cc1ccc(NC(=S)N/N=C/c2c(C)nn(-c3ccccc3)c2N2CCCC2)cc1 the Potency was inconclusive [inhibitor, partial curve, poor fit].
In the case of COc1ccc2nc(Nc3sc4c(c3C(N)=O)CCCC4)sc2c1, the Potency is reported as active: 8.91 µM.
In the case of COc1cc([C@@H]2[C@H]3CN(C)CC=C3C(C#N)=C(N)C2(C#N)C#N)cc2c1OCO2, the “activity, negative = inhibition” value is reported as inactive: -5.4%.
CCCn1c(=S)[nH]c2cc(OC)c(OC)cc2c1=O was tested, and the Potency was inconclusive [inhibitor, partial curve].
In the case of COc1ccc(N2CCN(C(=O)CN(c3ccccc3)S(C)(=O)=O)CC2)cc1, the “activity, negative = inhibition” value is reported as inactive: -0.708%.
With N#C/C(=C/c1ccncc1)c1nc2ccccc2s1 the “activity, negative = inhibition” value was inactive: -9.97%.
With CCn1c(C)nc2cc(-c3nnc(-c4c(-c5ccccc5)noc4C)o3)ccc21 the Potency was inconclusive [inhibitor, partial curve].
In the case of Cc1ccc2c(c1)NC(=O)C(CC(=O)NCCCN1CCc3ccccc3C1)O2 (stereo not drawn), the Potency is reported as inconclusive [inhibitor, single point].
In the case of CCNS(=O)(=O)c1ccc(CCC(=O)Nc2ccccc2C(=O)OC)cc1, the Potency is reported as inconclusive [inhibitor, single point].
For CC(=O)Oc1ccc2c(c1)CCC1C2CC[C@]2(C)C(=O)CCC12 (stereo partly drawn), the “activity, negative = inhibition” value was inactive: 6.47%.
In the case of CC(C)Sc1nc(-c2ccccc2)cc(=O)[nH]1, the Potency is reported as active: 20 µM.
C[C@@H]1C(c2ccc(F)cc2)=NN(c2ccccc2)[C@H]1C(=O)N1CCOC1=O was tested, and the “activity, negative = inhibition” value was inactive: -14.6%.
CC12CN(Cc3ccccc3)CC(C)(CN(Cc3ccccc3)C1)C2=O was tested, and the “activity, negative = inhibition” value was inactive: 3.96%.
Fc1cccc(CSc2ccc(-c3ccco3)nn2)c1 was tested, and the Potency was inconclusive [inhibitor, single point].
For Cc1cc(C)cc(C(=O)NC(=S)Nc2ccc(Cc3ccncc3)cc2)c1, the Potency was inconclusive [inhibitor, partial curve, poor fit].
With Cc1ccc([N+](=O)[O-])cc1N=Nc1c(-c2ccc([N+](=O)[O-])cc2)[nH]n(C(N)=S)c1=O the Potency was active: 11.2 µM.
In the case of O=C1CCC[C@H]1C(=O)Nc1ccc2ccccc2c1, the activity, negative = inhibition is reported as inactive: 12% [at 13.5 µM].
With C=CCn1c(-c2cc(OC)cc(OC)c2)n[nH]c1=S the Potency was active: 22.4 µM.
O=S(=O)(c1ccccc1)C1CON(Cc2ccccc2)C1c1ccccc1 (stereo not drawn) was tested, and the Potency was inconclusive [inhibitor, single point].
With O=c1c(-c2cccc(F)c2)nc2cncnc2n1Cc1ccccc1Cl the Potency was inconclusive [inhibitor, single point].
With O=C(CSc1nccc(=O)[nH]1)Nc1ccc(Br)c(Cl)c1 the Potency was inconclusive [inhibitor, single point].
Cc1ccc(-n2ncc3c(=O)n(CC#N)cnc32)cc1 was tested, and the Potency was inconclusive [inhibitor, single point].
CN(C)S(=O)(=O)N(CC(=O)N1CCC(Cc2ccccc2)CC1)c1ccccc1 was tested, and the Potency was inconclusive [inhibitor, single point].
Cc1nn(-c2cccc(Cl)c2)c2nc(-c3ccncc3)cc(C(=O)N3CCOCC3)c12 was tested, and the Potency was inconclusive [inhibitor, single point].
With CCOc1c2ccc(C(=O)NCc3cc(C(F)(F)F)cc(C(F)(F)F)c3)cc2nn1C the Potency was inconclusive [inhibitor, single point].
In the case of COC(=O)c1ccccc1NC(=O)c1ccnn1C, the “activity, negative = inhibition” value is reported as inactive: 4.38%.
With CCSc1nnc(NC(=O)CC)s1 the “activity, negative = inhibition” value was inactive: 3.92%.
Cc1ccc(Nc2nc(COC(=O)COc3ccc(C=O)cc3)cs2)cc1 was tested, and the Potency was inconclusive [inhibitor, single point].
For CCOc1ccc(Nc2oc(-c3cccc(Cl)c3)nc2C#N)cc1, the Potency was inconclusive [inhibitor, partial curve].
With CCn1nc(C)c(NC(=O)Nc2cccc(Cl)c2Cl)c1C the “activity, negative = inhibition” value was inactive: 3.56%.
COC(=O)c1ccccc1OS(=O)(=O)N(C)C was tested, and the “activity, negative = inhibition” value was inactive: -3.96%.
For O=C(Nc1cccc(Cl)c1)c1cc(N=Nc2ccc([N+](=O)[O-])cc2Cl)ccc1O, the Potency was inconclusive [inhibitor, single point].
CCOc1cc(C(=O)N/N=C/C2CC=CCC2)cc(OCC)c1OCC (stereo not drawn) was tested, and the Potency was inconclusive [inhibitor, single point].
For O=C(Cc1ccccc1)Nc1cccc(-c2nnc(-c3ccco3)o2)c1, the Potency was inconclusive [inhibitor, single point].
Cc1sc(NC(=S)NC(=O)c2cccs2)nc1-c1ccc(CC(C)C)cc1 was tested, and the Potency was inconclusive [inhibitor, single point].
With CS(=O)(=O)c1ccc2nc(NC(=O)C3COc4ccccc4O3)sc2c1 (stereo not drawn) the Potency was inconclusive [inhibitor, single point].
COc1ccccc1-c1nc(-c2cccc(C)c2)no1 was tested, and the Potency was inconclusive [inhibitor, partial curve].
In the case of CC(=O)C(=Cc1cc(C)n(-c2ccccc2)c1C)C(C)=O, the Potency is reported as inconclusive [inhibitor, partial curve].
For Cc1ccc(C2(C)NC(=O)N(CC(=O)NCc3cccs3)C2=O)cc1 (stereo not drawn), the “activity, negative = inhibition” value was inactive: 1.79%.
With Clc1ccc(-n2ncc3c(NCCN4CCOCC4)ncnc32)cc1 the Potency was inconclusive [inhibitor, single point].
With CCOC(=O)C1CCN(c2ccc(C(N)=O)cc2[N+](=O)[O-])CC1 the “activity, negative = inhibition” value was inactive: -1.19%.
For C=CCn1c(-c2ccc(N)cc2)nc2ccccc21, the Potency was inconclusive [inhibitor, partial curve].
For CC(=O)c1ccc(NC2=C(N3CCOCC3)C(=O)c3ccccc3C2=O)cc1, the Potency was inconclusive [inhibitor, single point].
For CNc1oc(-c2cccs2)nc1C#N, the Potency was inconclusive [inhibitor, partial curve].
